Molecules are shown by their SMILES. In all, about 110,000 compounds were measured (“z-score”: median about -0.1, highest 2% from about 2 on). This is one part of the list. Activity calls are given as the source filed them.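 How the source made its calls: active means z-score in the third read window above 3 or below -3; inactive means the rest.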

From PubChem BioAssay AID488969 (Vanderbilt High Throughput Screening Facility, 2010) come the findings set out here.

The target of this assay is Metabotropic glutamate receptor 8 (Rattus norvegicus) (UniProt P70579). Description: mGluR8 Gi/Go-coupled signaling modulation – cell-based, rat, thallium flux, HTS, primary screen (AID 488969). The following applies: HEK293 rat mGluR8, GIRK (G protein-gated inwardly rectifying potassium channel) thallium flux, FluoZin2; at 10 µM; stronger effect = higher value; submaximal glutamate (EC20) added with thallium.
Chain of UniProt P70579 (P70579 whole entry, looked up): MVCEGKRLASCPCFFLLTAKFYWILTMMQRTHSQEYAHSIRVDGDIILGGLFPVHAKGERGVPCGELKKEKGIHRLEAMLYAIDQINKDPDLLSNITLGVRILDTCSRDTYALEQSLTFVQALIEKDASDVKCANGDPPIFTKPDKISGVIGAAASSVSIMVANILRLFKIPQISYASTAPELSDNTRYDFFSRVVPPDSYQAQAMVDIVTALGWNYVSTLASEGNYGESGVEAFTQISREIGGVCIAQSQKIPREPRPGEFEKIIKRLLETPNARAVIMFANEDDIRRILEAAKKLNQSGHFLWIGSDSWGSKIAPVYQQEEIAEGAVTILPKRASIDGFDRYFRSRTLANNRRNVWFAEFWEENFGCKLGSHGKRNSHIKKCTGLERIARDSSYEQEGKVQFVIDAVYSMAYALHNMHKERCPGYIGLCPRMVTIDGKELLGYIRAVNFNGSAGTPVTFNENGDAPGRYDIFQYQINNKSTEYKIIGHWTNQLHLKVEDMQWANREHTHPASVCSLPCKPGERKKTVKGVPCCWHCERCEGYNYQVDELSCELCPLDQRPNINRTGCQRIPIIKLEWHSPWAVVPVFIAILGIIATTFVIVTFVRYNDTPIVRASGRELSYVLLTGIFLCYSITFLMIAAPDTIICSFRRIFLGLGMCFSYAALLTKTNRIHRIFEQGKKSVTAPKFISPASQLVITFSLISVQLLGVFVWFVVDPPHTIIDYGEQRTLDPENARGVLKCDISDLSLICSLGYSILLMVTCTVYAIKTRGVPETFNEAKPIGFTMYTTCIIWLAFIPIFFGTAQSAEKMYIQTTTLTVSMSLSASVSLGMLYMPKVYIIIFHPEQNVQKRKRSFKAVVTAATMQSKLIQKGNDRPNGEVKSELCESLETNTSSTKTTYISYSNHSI
On to `Cc1nn(CC(=O)Nc2ccccn2)c(C)c1[N+](=O)[O-]`, for which the z-score was 0.599.

In the case of `CCN(CC)S(=O)(=O)c1ccc(C2CNC(=O)C2)cc1` (stereo not drawn), the z-score turned out to be 0.261.

In turn, `CCOCCc1nnc(NC(=O)c2cccs2)s1` yielded a z-score of -0.0424.

As for `CC1CCN(C(=S)NC(=O)c2ccccc2)CC1`, the z-score is active: 4.42.

As for `Cc1c(C(=O)Nc2ccccc2)oc2c1C(=O)CC(C)(C)C2`, the z-score is -0.229.

Molecule `O=C(CN(Cc1ccccc1)S(=O)(=O)c1ccc(Br)cc1)NCc1ccco1` displayed a z-score of -0.557.

The molecule `Fc1ccccc1CNC(=S)Nc1ccc(Cl)cc1` gave a z-score of 2.23.

On to `CCOC(=O)C1=C(Nc2cccc(Cl)c2)OCC1=O`, for which the z-score was -0.814.

`O=C1OC(N2CCN(C/C=C/c3ccccc3)CC2)c2ccccc21` (stereo not drawn) yielded a z-score of -0.0152.

The molecule `CCc1ccccc1NC(=S)NCc1ccc2c(c1)OCO2` showed a z-score of -0.0875.

`O=C(CN1NS(=O)(=O)c2ccccc2C1=O)Nc1ccccc1OC(F)F` had a z-score of 0.0178.

Consider `O=C(Cn1c(=O)[nH]c2ccsc2c1=O)NC1CCCCCC1`, for which the z-score was active: 8.37.

Regarding `CC(=O)c1cccc(NC(=S)NC(=O)CC(C)C)c1`, the z-score is -0.138.

In turn, `CCCSCCCNC(=O)CC1Oc2ccccc2NC1=O` (stereo not drawn) returned a z-score of -0.746.

The molecule `C=CCn1c(=N)n(CC(=O)OCC)c2ccccc21` displayed a z-score of 0.534.

The molecule `CCOC(=O)N1CCC(N2CC34C=CC(O3)C(C(=O)Nc3ccc(F)cc3)C4C2=O)CC1` (stereo not drawn) had a z-score of 0.385.

Consider `Cc1ccc2c3c([nH]c2c1C)-c1nonc1CC3`, for which the z-score was -0.0985.

`Cc1cc(C)n(CCc2nc(-c3ccc(C(C)(C)C)cc3)cs2)n1` displayed a z-score of -0.0594.

`Cc1ccc(C(C)C)c(OCCNC(=S)Nc2cccc3ccccc23)c1` showed a z-score of -0.0377.

As for `COC(=O)CN(C)C1CC(=O)N(c2ccc(Cl)cc2)C1=O` (stereo not drawn), the z-score was -0.379.

Turning to `O=c1[nH]c2ccccc2n2c(-c3ccncc3)nnc12`, the z-score is -0.154.

`N#Cc1c(NCCN)nc(-c2ccco2)c2c1CCCC2`: the z-score is 0.172.

In turn, `S=C(c1ccccc1)N(c1ccccc1)c1ccccc1` showed a z-score of -0.231.

In the case of `OCCNC(=S)NC1CCCCC1`, the z-score is -0.295.

In the case of `Cc1nn(Cc2ccc(C(=O)Nc3ccc(C(=O)OC(C)C)cc3)o2)c(C)c1Cl`, the z-score was -0.425.

Molecule `Cc1cc(C)nc(SCC(=O)Nc2cc(C)on2)n1` had a z-score of 0.0308.

For the molecule `COc1ccccc1NC(=O)Cc1noc(CSc2cccc[n+]2[O-])n1`, the z-score came out at 0.154.

In the case of `CN(C)CC#CCCCCCCC#CCN(C)C`, the z-score is -0.162.

For `O=C(O)c1cn(C2CC2)c2cc(N3CCOCC3)c(F)cc2c1=O`, the z-score stood at 0.473.

The molecule `Cc1cc(NC(=O)Cc2cccs2)nn1CC(=O)NCc1ccco1` yielded a z-score of -0.178.

As to `O=C(COC(=O)c1ccccc1Nc1ccc(SC(F)F)cc1)NC1CC1`, the z-score was -0.144.

On to `CCCc1cc2c(=O)c(-c3ccc4c(c3)OCCO4)coc2cc1OS(C)(=O)=O`, for which the z-score was -0.0601.

Consider `CC(=O)c1ccc(N2CCN(C(=S)Nc3ccccc3F)CC2)cc1`, for which the z-score was 1.44.

Turning to `Fc1ccc(C(c2nnnn2C2CCCC2)N(Cc2ccco2)CC2CCCO2)cc1` (stereo not drawn), the z-score was -0.775.

Regarding `NC(=O)CSc1nnc(CCc2nc3ccccc3[nH]2)n1-c1ccccc1`, the z-score came out at 0.0122.

`Cc1ccc(C(=O)c2cc([N+](=O)[O-])ccc2N2CCOCC2)cc1` had a z-score of -0.268.

In turn, `COc1ccc(C(=O)NC(=O)COC(=O)c2ccc3ncsc3c2)cc1` came in with a z-score of 0.16.

As for `O=C(Nc1ccn(Cc2c(F)c(F)cc(F)c2F)n1)c1cccc(Cn2cc([N+](=O)[O-])cn2)c1`, the z-score was -0.771.

Regarding `CCC1C(=O)N=C(SCC(=O)Nc2ccccc2)NC1=O` (stereo not drawn), the z-score turned out to be 0.135.

In turn, `CC1CCN(S(=O)(=O)c2ccc(S(=O)(=O)NCc3ccco3)cc2)CC1` yielded a z-score of 0.368.

`Cc1cc(C)nc(-n2nc(C)cc2NC(=O)CNC(C)c2ccccc2)n1` (stereo not drawn): the z-score is 0.124.

The molecule `CC1Cc2ccccc2N1C(=O)CN1CCC(n2nnc3cc(C(F)(F)F)ccc32)CC1` (stereo not drawn) showed a z-score of -0.668.

For the molecule `CCc1ccc2[nH]c(=O)c(C3C(C#N)=C(N)Oc4c3ccc3cccnc43)cc2c1` (stereo not drawn), the z-score was -0.379.

Molecule `Cc1cc(C)nc(-n2nc(C)cc2NC(=O)CN2CCC(C)CC2)n1` gave a z-score of -0.761.

As to `Cc1ccc(-c2nc(N)c3c(-c4ccc(C)cc4)nn(C(C)(C)C)c3n2)cc1`, the z-score is 0.2.

On to `CC1(C(=O)NC2CCCCCCC2)CCC(=O)N1Cc1cccs1` (stereo not drawn), for which the z-score is -0.269.

Consider `CCC(=O)Nc1cccc(NC(=O)c2ccc(Br)cc2)c1`, for which the z-score is -0.473.

Molecule `Cc1c(C(=O)NC(=S)Nc2ccc3c4c(cccc24)CC3)cccc1[N+](=O)[O-]` gave a z-score of -0.205.

`Brc1ccc(C2Nc3cccc4cccc(c34)N2)s1` returned a z-score of 0.154.

For the molecule `Cc1nn(-c2ccccc2)c(C)c1NC(=O)COc1ccc(Cl)cc1Cl`, the z-score was -0.279.

`CCCCn1c(SCC(=O)Nc2nnc(C)s2)nc2c1c(=O)n(C)c(=O)n2C` gave a z-score of 0.257.

In turn, `O=C(O)/C=C\C(=O)Nc1ccccc1C#Cc1ccccc1` registered a z-score of -0.373.

In the case of `Cc1c(NS(=O)(=O)c2ccc(Br)s2)c(=O)n(-c2ccccc2)n1C`, the z-score was -0.25.

For `CC1(C)CCCN(C(=O)N2c3ccccc3Sc3ccccc32)C1`, the z-score was -0.275.

Take `COC(=O)c1ccccc1NC(=O)/C=C/C(=O)O`: the z-score was determined as 0.196.

For the molecule `COc1cccc(CNC(=O)Nc2cccs2)c1`, the z-score was 1.23.

Regarding `CCCn1c(CCC(=O)Nc2ccccc2Cc2ccccc2)nc2cc(S(=O)(=O)N3CCOCC3)ccc21`, the z-score is -0.371.

As for `CNCCCc1[nH]nc(N)c1C#N`, the z-score turned out to be 0.279.

For the molecule `COc1ccc(S(=O)(=O)NCc2ccc3c(c2)OCO3)cc1C(=O)O`, the z-score is 0.0773.

The molecule `CC(=O)Nc1cccc(NC(=O)COc2nncc3ccccc23)c1` came in with a z-score of -0.259.

On to `O=[N+]([O-])c1ccc(NC(=S)N2CCN(c3ccc(F)cc3)CC2)cc1`, for which the z-score was -0.0841.

Regarding `COC(=O)c1cc2ccsc2n1Cc1nc(-c2cccc(Cl)c2)oc1C`, the z-score is -0.229.

As for `O=C(/C=C/c1ccccc1)NCCC1=CCCCC1`, the z-score was -0.134.

`CCOc1ccc2c(c1)C(C)=CC(C)(C)N2C(=O)Nc1ccccc1F` yielded a z-score of -0.0976.

`CCOc1ccc(NC(=O)CN(C)CC(=O)Nc2ccccc2SC)cc1OCC` displayed a z-score of -0.61.

For `Cc1nnc(C)c2c(C)n(C(c3ccccc3)c3ccccc3)c(C)c12`, the z-score was determined as 0.0312.

Molecule `C=CCNCC#CCOc1ccc(OC)cc1` came in with a z-score of 0.521.

With `Cc1n[nH]c(C)c1S(=O)(=O)N1CCC(C(=O)O)CC1`, the z-score was -0.299.

`CCN(CC)S(=O)(=O)c1ccc(S(=O)(=O)Nc2cc3c(cc2C(C)=O)OCO3)cc1` registered a z-score of 1.3.

For the molecule `COc1ccccc1N1CCN(C(=O)C2c3ccccc3Oc3ccccc32)CC1`, the z-score was -0.083.

`Cc1nc2ccccc2nc1N1CCCCC1` registered a z-score of -0.522.

`C=CCNC(=O)CC(C)C(CCCCC)C(=O)O` (stereo not drawn): the z-score was -0.15.

Molecule `CCOC(=O)Cn1cc(/C=N/NC(=O)c2ccc(C#N)cc2F)c2ccccc21` came in with a z-score of -0.218.
